Reference: PMC10368733
No constants are given. Whether binding was seen depends on the method and setting. For some assays here: Binding seen in cells or lysates may run through a third protein. Some entries that bind do so weakly or less than the wild type. For some assays here: Where a sequence is shown, tags or fusion partners need not be part of it.

Protein sequences, listed by entry. Tags and fused reporters are not part of them.
UniProt O14733: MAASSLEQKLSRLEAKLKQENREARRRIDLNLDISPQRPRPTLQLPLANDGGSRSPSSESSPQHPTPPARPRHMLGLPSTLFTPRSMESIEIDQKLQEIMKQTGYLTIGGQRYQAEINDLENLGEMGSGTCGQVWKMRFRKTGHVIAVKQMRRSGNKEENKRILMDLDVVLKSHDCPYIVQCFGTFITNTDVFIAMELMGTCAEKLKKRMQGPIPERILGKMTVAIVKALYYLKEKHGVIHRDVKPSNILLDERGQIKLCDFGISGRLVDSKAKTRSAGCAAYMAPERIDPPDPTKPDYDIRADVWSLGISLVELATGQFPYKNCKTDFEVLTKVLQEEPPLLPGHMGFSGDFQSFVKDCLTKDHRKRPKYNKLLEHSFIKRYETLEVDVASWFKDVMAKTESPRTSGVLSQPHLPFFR
UniProt P03372: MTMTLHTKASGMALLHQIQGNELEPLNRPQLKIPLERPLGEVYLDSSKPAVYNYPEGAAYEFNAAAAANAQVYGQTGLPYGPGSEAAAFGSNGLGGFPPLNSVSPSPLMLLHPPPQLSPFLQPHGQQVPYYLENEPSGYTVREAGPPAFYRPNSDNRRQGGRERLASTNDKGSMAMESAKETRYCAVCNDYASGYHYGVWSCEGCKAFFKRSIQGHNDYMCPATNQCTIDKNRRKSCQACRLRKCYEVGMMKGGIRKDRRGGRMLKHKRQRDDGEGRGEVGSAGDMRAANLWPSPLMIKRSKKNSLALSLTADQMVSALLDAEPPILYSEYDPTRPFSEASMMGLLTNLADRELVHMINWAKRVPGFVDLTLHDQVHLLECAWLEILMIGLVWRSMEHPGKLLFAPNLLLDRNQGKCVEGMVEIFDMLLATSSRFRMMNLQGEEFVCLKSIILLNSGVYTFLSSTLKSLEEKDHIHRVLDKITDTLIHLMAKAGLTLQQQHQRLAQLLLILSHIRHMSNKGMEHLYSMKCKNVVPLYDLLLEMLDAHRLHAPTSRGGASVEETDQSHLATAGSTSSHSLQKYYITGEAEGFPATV

Assays:
[1] = biological target: T1, septin 11, endogenous in HAEC (human (endogenous in HAEC)) (UniProt Q9NVA2); test: co-IP; endogenous proteins in HAEC lysate (25 mM Tris-HCl pH 7.4, 150 mM NaCl, 1% NP-40, 1 mM EDTA, 5% glycerol); IP with anti-ERα, anti-septin 11 or anti-MKK7, 4 °C overnight; cells treated with vehicle, E2 or 27HC (0 to 30 min); immunoblot
T1 sequence: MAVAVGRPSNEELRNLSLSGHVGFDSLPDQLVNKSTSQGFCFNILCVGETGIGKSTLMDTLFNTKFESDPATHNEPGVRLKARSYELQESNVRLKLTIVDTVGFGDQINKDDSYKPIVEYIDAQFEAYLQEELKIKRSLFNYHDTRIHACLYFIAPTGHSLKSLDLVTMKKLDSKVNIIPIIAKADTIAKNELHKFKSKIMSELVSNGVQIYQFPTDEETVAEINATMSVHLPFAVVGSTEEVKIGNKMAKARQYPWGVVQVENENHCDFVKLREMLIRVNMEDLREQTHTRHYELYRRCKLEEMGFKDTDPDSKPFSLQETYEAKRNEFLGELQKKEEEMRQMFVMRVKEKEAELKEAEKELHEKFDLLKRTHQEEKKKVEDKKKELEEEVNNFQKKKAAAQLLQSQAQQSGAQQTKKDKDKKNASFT

[2] = biological target: MKK7, endogenous in HAEC (human (endogenous in HAEC)) (UniProt O14733); test: as above
[3] = biological target: HA-MKK7 (UniProt O14733); test: pull-down; HA-tagged MKK7 bound to beads, complex with GADD45β formed first, then wild-type septin 11 or deletion mutants added; immunoblot (Fig. 4g); both purified
[4] = biological target: HA-MKK7 (UniProt O14733); test: pull-down; purified recombinant tagged proteins; bait on beads pre-blocked with 1% BSA, 1 h at 37 °C, prey added 1 h at 37 °C; immunoblot (Supplementary Fig. 9b, c); both purified
[5] = biological target: MKK7, endogenous in HAEC (human (endogenous in HAEC)) (UniProt O14733); test: co-IP; HAEC with endogenous septin 11 knocked down by shRNA and reconstituted by lentivirus with wild-type septin 11, septin 11-∆G4 or septin 11-∆GTP; vehicle or 27HC; immunoblot
[6] = biological target: estrogen receptor alpha (ERα), endogenous in HAEC (human (endogenous in HAEC)) (UniProt P03372); test: co-IP; endogenous proteins in HAEC lysate (25 mM Tris-HCl pH 7.4, 150 mM NaCl, 1% NP-40, 1 mM EDTA, 5% glycerol); IP with anti-ERα, anti-septin 11 or anti-MKK7, 4 °C overnight; cells treated with vehicle, E2 or 27HC (0 to 30 min); immunoblot

Molecule: MKK7, endogenous in HAEC (from UniProt O14733 1-419) (enzyme)
- binding [1]: binds

B1: GADD45β, endogenous in HAEC (protein, UniProt O75293 1-160)
chain: MTLEELVACDNAAQKMQTVTAAVEELLVAAQRQDRLTVGVYESAKLMNVDPDSVVLCLLAIDEEEEDDIALQIHFTLIQSFCCDNDINIVRVSGMQRLAQLLGEPAETQGTTEARDLHCLLVTNPHTDAWKSHGLVEVASYCEESRGNNQWVPYISLQER
- binding [2]: binds

B2: c-Myc-GADD45β (protein, UniProt O75293 1-160)
chain: B1 chain
- binding [3]: binds

B3: flag-septin 11-∆GTP (protein, UniProt Q9NVA2)
chain: MAVAVGRPSNEELRNLSLSGHVGFDSLPDQLVNKSTSMGFKDTDPDSKPFSLQETYEAKRNEFLGELQKKEEEMRQMFVMRVKEKEAELKEAEKELHEKFDLLKRTHQEEKKKVEDKKKELEEEVNNFQKKKAAAQLLQSQAQQSGAQQTKKDKDKKNASFT
- binding [4]: no binding

B4: septin 11-∆GTP, reconstituted in HAEC by lentivirus (protein, UniProt Q9NVA2)
chain: B3 chain
- binding [5]: no binding

B5: flag-septin 11-∆G4 (protein, UniProt Q9NVA2)
chain: MAVAVGRPSNEELRNLSLSGHVGFDSLPDQLVNKSTSQGFCFNILCVGETGIGKSTLMDTLFNTKFESDPATHNEPGVRLKARSYELQESNVRLKLTIVDTVGFGDQINKDDSYKPIVEYIDAQFEAYLQEELKIKRSLFNYHDTRIHACLYFIAPTGHSLKSLDLVTMKKLDSKVNIIPIIALHKFKSKIMSELVSNGVQIYQFPTDEETVAEINATMSVHLPFAVVGSTEEVKIGNKMAKARQYPWGVVQVENENHCDFVKLREMLIRVNMEDLREQTHTRHYELYRRCKLEEMGFKDTDPDSKPFSLQETYEAKRNEFLGELQKKEEEMRQMFVMRVKEKEAELKEAEKELHEKFDLLKRTHQEEKKKVEDKKKELEEEVNNFQKKKAAAQLLQSQAQQSGAQQTKKDKDKKNASFT
- binding [4]: no binding

B6: septin 11-∆G4, reconstituted in HAEC by lentivirus (protein, UniProt Q9NVA2)
chain: B5 chain
- binding [5]: no binding

B7: septin 11, endogenous in HAEC (protein, UniProt Q9NVA2 1-429)
chain: T1 sequence
- binding [6]: binds

B8: wild-type septin 11, reconstituted in HAEC by lentivirus (protein, UniProt Q9NVA2 1-429)
chain: T1 sequence
- binding [5]: binds

B9: flag-septin 11-WT (wild-type) (protein, UniProt Q9NVA2 1-429)
chain: T1 sequence
- binding [3]: binds
- binding [4]: binds
